Some of the results follow. Cleavage of a single-stranded DNA pool by Rep nickase domains was read by sequencing at 3 µM enzyme and 37 °C for 1 h; the strands have 90 letters, of which the middle is given. Values are log2 of uncut reads against the no-enzyme pool; strong cutting gives strongly negative numbers. There is no active / inactive call. Reads are scaled to the total; uncut strands gain when others are lost, and binding without cutting may add a little.
What was measured:
Experiment in all cases: uncleaved DNA left, log2 of reads against the no-enzyme library (log2 ratio); higher = less cleavage (more negative = more Rep cleavage of the k-mer); sequences stand for … in CTCGTCCG…ACCGGAGA
[1] = test system: T1, Rep nickase domain of Muscovy duck circovirus
T1 sequence (residues 1-111 of Rep, tag left off): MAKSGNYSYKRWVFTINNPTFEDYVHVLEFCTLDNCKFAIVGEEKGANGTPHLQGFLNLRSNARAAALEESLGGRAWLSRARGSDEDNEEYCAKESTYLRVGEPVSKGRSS
Protocol: (§1)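 A pool of 90-nt single-stranded DNAs with seven random bases just before the constant AC of the nick site (name = the seven bases) was cut by 3 µM recombinant His6-SUMO-tagged Rep nickase domain (300 nM DNA, 50 mM HEPES pH 8.0, 50 mM NaCl, 1 mM MnCl2, 1 h, 37 °C, three replicates). Uncut DNA was amplified and sequenced.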

[2] = test system: T2, Rep nickase domain of banana bunchy top virus
T2 sequence (residues 1-94 of Rep, tag left off): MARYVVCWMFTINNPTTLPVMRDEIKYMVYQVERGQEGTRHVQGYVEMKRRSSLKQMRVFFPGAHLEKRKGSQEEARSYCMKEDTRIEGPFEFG
Protocol: as §1

[3] = test system: T3, Rep nickase domain of cabbage leaf curl virus
T3 sequence (residues 1-116 of Rep, tag left off): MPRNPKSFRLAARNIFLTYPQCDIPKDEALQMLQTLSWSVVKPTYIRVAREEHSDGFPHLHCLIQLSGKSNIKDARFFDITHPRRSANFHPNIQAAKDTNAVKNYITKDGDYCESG
Protocol: as §1

[4] = test system: T4, Rep nickase domain of chickpea chlorotic dwarf virus
T4 sequence (residues 1-124 of Rep, tag left off): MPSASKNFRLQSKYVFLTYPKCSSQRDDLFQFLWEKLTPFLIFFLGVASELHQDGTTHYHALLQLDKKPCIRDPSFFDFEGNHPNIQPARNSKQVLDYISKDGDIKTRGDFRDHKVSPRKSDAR
Protocol: as §1

[5] = test system: T5, Rep nickase domain of faba bean necrotic yellows virus
T5 sequence (residues 1-98 of Rep, tag left off): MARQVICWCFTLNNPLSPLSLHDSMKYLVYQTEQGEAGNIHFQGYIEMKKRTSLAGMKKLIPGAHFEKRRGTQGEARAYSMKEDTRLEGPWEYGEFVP
Protocol: as §1

[6] = test system: T6, Rep nickase domain of maize striate mosaic virus
T6 sequence (residues 1-117 of Rep, tag left off): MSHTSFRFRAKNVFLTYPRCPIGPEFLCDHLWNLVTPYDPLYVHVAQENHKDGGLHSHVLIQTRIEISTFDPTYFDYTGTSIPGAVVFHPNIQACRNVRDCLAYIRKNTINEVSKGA
Protocol: as §1

[7] = test system: T7, Rep nickase domain of porcine circovirus 2
T7 sequence (residues 2-116 of Rep, tag left off): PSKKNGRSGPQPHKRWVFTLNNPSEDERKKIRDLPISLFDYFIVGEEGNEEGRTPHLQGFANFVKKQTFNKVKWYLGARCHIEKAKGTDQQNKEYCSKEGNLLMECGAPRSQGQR
Protocol: as §1

[8] = test system: T8, Rep nickase domain of tomato golden mosaic virus
T8 sequence (residues 1-124 of Rep, tag left off): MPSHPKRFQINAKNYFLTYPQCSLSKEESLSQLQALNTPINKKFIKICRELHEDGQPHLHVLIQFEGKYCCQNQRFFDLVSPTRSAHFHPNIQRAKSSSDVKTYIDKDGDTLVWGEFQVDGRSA
Protocol: as §1

[9] = test system: T9, Rep nickase domain of tomato yellow leaf curl virus
T9 sequence (residues 1-136 of Rep, tag left off): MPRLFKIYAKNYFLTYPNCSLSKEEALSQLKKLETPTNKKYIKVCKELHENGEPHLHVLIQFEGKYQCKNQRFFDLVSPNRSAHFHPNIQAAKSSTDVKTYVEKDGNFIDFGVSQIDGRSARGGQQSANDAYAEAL
Protocol: as §1

[10] = test system: T10, Rep nickase domain of wheat dwarf virus
T10 sequence (residues 1-137 of Rep, tag left off): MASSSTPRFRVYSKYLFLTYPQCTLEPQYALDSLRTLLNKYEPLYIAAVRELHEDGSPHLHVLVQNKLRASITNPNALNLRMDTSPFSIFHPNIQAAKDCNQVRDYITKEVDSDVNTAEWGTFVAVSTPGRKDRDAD
Protocol: as §1

| Sequence | uncleaved DNA left (log2) [1] | uncleaved DNA left (log2) [2] | uncleaved DNA left (log2) [3] | uncleaved DNA left (log2) [4] | uncleaved DNA left (log2) [5] | uncleaved DNA left (log2) [6] | uncleaved DNA left (log2) [7] | uncleaved DNA left (log2) [8] | uncleaved DNA left (log2) [9] | uncleaved DNA left (log2) [10] |
| --- | --- | --- | --- | --- | --- | --- | --- | --- | --- | --- |
| ACCAAAA | -0.0168 | 0.0645 | -0.158 | 0.0452 | -0.00858 | -0.848 | 0.103 | 0.0399 | -0.131 | 0.0251 |
| CAGGGTA | 0.113 | 0.107 | 0.343 | 0.975 | 0.0984 | 1.47 | 0.154 | 0.141 | -0.0865 | 0.103 |
| TCCCAGT | 0.0795 | 0.0244 | 0.142 | -0.481 | 0.0446 | -0.626 | 0.116 | -0.0525 | 0.0394 | -0.0434 |
| AGCTGTT | -0.593 | -0.082 | -0.381 | 0.188 | -0.0224 | 1.33 | -3.15 | -0.179 | -0.237 | -0.208 |
| TAATTAC | 0.038 | 0.0922 | -3.58 | -3.47 | 0.11 | -2.15 | -0.196 | -2.78 | -0.00842 | -3.09 |
| CTTCGAG | -0.0312 | -0.034 | -0.00885 | 0.223 | 0.0602 | -0.985 | 0.143 | 0.0159 | 0.0851 | -0.0508 |
| TAGAGCA | 0.216 | 0.0398 | -0.0306 | -1.16 | 0.165 | -0.606 | -2.29 | 0.226 | 0.209 | 0.0903 |
| CCTAAGC | 0.0506 | 0.0344 | -0.0299 | -0.124 | 0.0929 | -0.762 | 0.131 | 0.0148 | 0.0886 | -0.0883 |
| AGACGGG | 0.0535 | 0.0431 | -0.114 | 0.0636 | 0.0308 | -0.415 | 0.149 | 0.088 | 0.0856 | -0.014 |
| AGTCACA | 0.0473 | 0.0153 | 0.067 | -0.527 | -0.0515 | 0.196 | -0.788 | 0.00573 | 0.0344 | -0.0275 |
| AACCCTG | 0.0885 | 0.0842 | 0.248 | 0.843 | 0.0916 | 1.06 | -0.0974 | 0.0813 | 0.0137 | 0.102 |
| CCGAACC | -0.155 | -0.141 | 0.0289 | -0.521 | -0.12 | -0.449 | -0.289 | 0.0106 | -0.126 | -0.167 |
| TATAATG | 0.0254 | -0.0752 | -0.524 | -0.837 | 0.125 | -1.02 | 0.153 | -0.121 | -0.0466 | -0.00535 |
| TTCCCAA | 0.187 | 0.172 | 0.313 | 0.347 | 0.065 | 0.315 | 8.65e-05 | 0.0903 | 0.185 | 0.287 |
| TAAAGCG | -0.014 | -0.00243 | -0.881 | -0.0503 | 0.0337 | -0.632 | 0.093 | -0.0279 | 0.00135 | -0.0821 |
| AGTAGGG | 0.201 | 0.112 | -0.177 | -0.0239 | 0.207 | -0.608 | 0.257 | 0.152 | 0.121 | 0.0295 |
| TAGTTGC | 0.119 | -0.0449 | -0.78 | -0.362 | 0.0593 | -1.17 | -0.126 | -0.162 | 0.0297 | -0.0997 |
| AAGCGCA | 0.0144 | 0.0153 | 0.181 | 1.18 | 0.0475 | 1.16 | 0.0634 | 0.11 | -0.113 | 0.024 |
| TAGGACG | -0.106 | -0.0267 | -0.0784 | 0.263 | -0.113 | -0.867 | 0.0719 | -0.0755 | 0.00786 | 0.0789 |
| CATGTGT | 0.0565 | -0.109 | -0.687 | -0.901 | 0.133 | -1.03 | -0.0282 | -0.0399 | 0.0825 | -0.061 |
| AGCAATC | 0.0704 | 0.0758 | 0.0627 | 0.415 | 0.0479 | 0.0285 | -0.0224 | 0.0419 | 0.0513 | 0.081 |
| GTTTCAC | 0.0906 | 0.0942 | 0.425 | 0.991 | -0.000649 | 1.79 | 0.151 | 0.0696 | 0.156 | 0.102 |
| CCTGCGC | 0.0632 | 0.103 | -0.689 | -0.433 | 0.0702 | -0.786 | 0.126 | -0.0695 | 0.157 | -0.141 |
| GCCCGGG | -0.00899 | -0.0153 | 0.473 | 0.797 | -0.025 | 0.546 | 0.167 | -0.00162 | 0.0113 | -0.053 |
| GTTCCCA | -0.0222 | 0.147 | 0.328 | 0.893 | 0.0447 | 1.84 | -0.114 | 0.0319 | 0.119 | 0.164 |
| CAGACGT | 0.103 | -0.0151 | 0.0701 | 0.2 | -0.0384 | -0.299 | -1.17 | 0.015 | 0.0147 | -0.00184 |
| GCAGCGC | -0.0462 | -0.0762 | -0.705 | -0.257 | -0.0101 | -0.799 | 0.105 | -0.0595 | -0.0486 | -0.126 |
| ATGGGTT | 0.0486 | -0.102 | 0.173 | 1.02 | 0.0355 | 1.63 | 0.153 | 0.14 | -0.0339 | 0.0308 |
| GGCAACG | 0.0339 | -0.0416 | -0.156 | -0.0919 | 0.0154 | -0.217 | 0.113 | 0.0903 | -0.0554 | -0.0667 |

Reference: the supplement of paper PMC7826260
